PubChem BioAssay (NCI)
Several values for one entry are separate records, joined by “and”; a condition that tells them apart may be missing. Equal entries are not always repeated.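 How tested: cells in 96-well plates exposed to compound for 48 hours at five concentrations. GI50 is the concentration that inhibits growth by half. TGI: total growth inhibition.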

tested on: NCI-H322M lung; experiment: growth of human tumour cells (NCI), 48 h

Structure (SMILES)	TGI	GI50
Nc1c(C(=O)c2ccc(Cl)c(Cl)c2)[nH]c(NCc2ccccc2)c1C(=S)Nc1ccccc1	18.1 µM	
Cn1c(COC(=O)NCCn2ccnc2)nc2c(N3CCOCC3)nc(-c3ccccc3)nc21	2.92 µM	1.51 µM
O=C1NC(O)n2c(=O)[nH]c(=O)n21 (stereo not given)	> 100 µM	
CCOC(=O)c1cc(-c2ccc(OC)cc2)c([N+](=O)[O-])[nH]1	> 10 µM	
COc1cccc2c1C(=O)c1c(O)c3c(c(O)c1C2=O)C[C@@](O)(C(C)=O)CC3OC1CC(OC2CC(N)C(O)C(C)O2)C(O)C(C)O1 (stereo not given in full)	> 100 µM	
Nc1cc2c3c(cccc3c1)C(=O)N(CCN1CCCC1)C2=O	29.2 µM	4.45 µM
CCCCCCCC(=O)OCC/C=C/C1OC1C1OC(=O)/C=C\C=C\C(=O)N(C(C)=O)C(=O)/C=C(/C)CCC2OC2C1OC(=O)NC(C)=O (stereo not given)	> 25 µM	9.35 µM
COc1cc(N2C(=O)[C@H](Cl)C2c2ccc(SC)cc2)cc(OC)c1OC (stereo not given in full)	> 100 µM	2.66 µM
COC(=O)c1sc(=O)sc1SCc1cccc(CSc2sc(=O)sc2C(=O)OC)c1	> 100 µM	
O=P1(N(CCCl)CCCl)Oc2ccc(Cl)cc2C(C(Cl)(Cl)Cl)c2cc(Cl)ccc2O1 (stereo not given)	> 100 µM	
Cc1cc(Cl)ccc1NC(=O)CCCC(=O)C1C/C(=N/O)CC/C1=N\O (stereo not given)	> 100 µM	
O=c1c(Cc2ccc3c(c2)OCO3)nnc2sc(-c3cc(F)c(Cl)cc3Cl)nn12	67.7 µM	20.5 µM
Cc1n[nH]c2ccccc2c1=O	> 100 µM	
O=C(O)C(Cc1ccccc1)NCc1c(O)ccc2c(-c3ccccc3)cc(=O)oc12 (stereo not given)	> 100 µM	
O=CCCCCCOCc1ccccc1	> 100 µM	
COc1ccc(-c2ccc(OC)c(OC)c2OC)cc1	> 100 µM	6.65 µM
CCN1CC2(C)CCC(OC)C34C5CC6CCC(O)(C5C(=O)O6)C(C(O)C23)C14 (stereo not given)	> 100 µM	
Cc1c(C)c([N+](=O)[O-])c2c(c1N)C(=O)c1ccccc1C2=O	> 100 µM	
CSc1nc(Nc2cccc(NC(=O)CCl)c2)c(C#N)c(-c2cccc([N+](=O)[O-])c2)n1	20.5 µM	7.82 µM
C=C(NC(=O)C(=C)NC(=O)c1ccc2c(n1)-c1coc(n1)C(=C)NC(=O)C(=C)NC(=O)c1nc(oc1C)C(=C)NC(=O)C(C(C)(C)O)NC(=O)C(=C)NC(=O)c1coc(n1)/C(=C/C)NC(=O)[C@H]([C@@H](C)O)NC(=O)c1csc-2n1)C(N)=O (stereo not given in full)	> 87.5 µM	
COc1ccc(-c2nc3ccccc3s2)cc1OC	89.2 µM	
Cn1c(=O)c2c(nc3[nH]c(=O)c(Br)cn32)n(C)c1=O	> 100 µM	
COc1ccc(-c2ccc(C(=O)C=P(c3ccccc3)(c3ccccc3)c3ccccc3)cc2)cc1	44.9 µM	
CC(C)C[C@@H](N)[C@@H](O)C(=O)N[C@H](C(=O)N[C@H](C(=O)N[C@@H](CC(=O)O)C(=O)O)C(C)C)C(C)C	> 20 µM	> 20 µM
C[s+]1c2ccccc2c2ccccc21	> 100 µM	

Structure (SMILES)	TGI	GI50
N#Cc1ccccc1NC(=O)C(=O)C(C(=O)c1ccccc1F)C1OC(=O)c2ccccc21 (stereo not given)	> 100 µM	
N[C@@H](CCC(=O)NC(Cc1ccccc1)C(=O)NCP(=O)(O)O)C(=O)O (stereo not given in full)	> 100 µM	
N/N=C(/Cc1ccccc1)NNO	> 100 µM	
OCC(O)C(O)C(O)C(/C=N\Nc1ncnc2c(Br)cc(Br)cc12)=N/Nc1ncnc2c(Br)cc(Br)cc12 (stereo not given)	33.6 µM and > 100 µM	
O=C(O)CSC(CC(=O)c1ccc(Cl)cc1)c1ccc(Cl)cc1 (stereo not given)	> 100 µM	
N#CCCC(C=O)(CCC#N)CCC#N	> 100 µM	
Cc1cc2c(c(C(=O)O)c1C)-c1cccc(Cl)c1C2=O	> 100 µM	
O=C1NC(O)c2cc3ccccc3cc2O1 (stereo not given)	> 100 µM	
COc1nc(Cl)nc(N[C@H](C)c2c3ccccc3cc3ccccc23)n1	9.7 µM	
CC(C)(C)C[C@H]1N[C@@H](C(=O)NC2CCC(O)CC2)[C@H](c2cccc(Cl)c2F)[C@@]12C(=O)Nc1cc(Cl)ccc12 (stereo not given in full)	24 µM	11.4 µM
C=C(C)C1CC(=O)C(C)=C(O)C1 (stereo not given)	> 100 µM	
Cc1cccc(C2NC(=O)c3ccccc3N2)c1 (stereo not given)	> 100 µM	
O=C(Nc1ccccc1)N1CCN(C(=O)Nc2ccccc2)C1=S	> 100 µM	
CCOc1c(Br)cc(Br)cc1C=C(C#N)C#N	> 10 µM	
Clc1ccc2c(NCCCCCCNc3ccnc4cc(Cl)ccc34)ccnc2c1	16.1 µM	
COC(=O)C1=C(CCCCO[Si](C)(C)C(C)(C)C)NC(=O)N2[C@H](CCOCc3ccccc3)CC[C@@H]12	> 100 µM	
Cn1c(=O)oc2cc(C3CCC(=O)N3Cc3csc(-c4ccccc4)n3)ccc21 (stereo not given)	> 100 µM	
CCc1nc(N)c2nc(-c3cccs3)oc2n1	> 100 µM	
O=C(CNc1ccccc1C(=O)O)Nn1cnc2ccc(S(=O)(=O)Nc3ccccc3C(=O)O)cc2c1=O	> 100 µM	
C[C@H]1S[C@@H](c2ccc(Cl)cc2Cl)N(NC(=O)c2ccncc2)C1=O	> 100 µM	
CCN(CC)C(=S)SC(C(=O)Nc1nnc(-c2ccc(Cl)cc2)o1)c1ccccc1 (stereo not given)	94.2 µM	
CN1CCN(C(=O)c2cn(Cc3cncn3Cc3ccc4c(c3)OCO4)cc2-c2cccc3ccccc23)CC1	> 100 µM	
C1=CC(=P(c2ccccc2)(c2ccccc2)c2ccccc2)C=C1	36.4 µM	
C=C(Br)CN=CN(C)C	> 100 µM	
[N-]=[N+]=CC(=O)CCC(N)C(=O)O (stereo not given)	> 209 µM	0.944 µM
